Screen size: about 310,000 compounds; about 18,000 (5.8%) were called active. This list was built around the results that the source calls inconclusive (neither active nor inactive); the mix of calls is not that of the screen. The call rests on the fitted dose curve; in most records, active means well fitted inhibition curve with a large enough effect; inconclusive means small, poorly fitted or top-dose-only effect, or another doubt; inactive means no such curve, though single readings can be large or run the other way. No potency is given beside an inconclusive call; the fits are too rough.
Experiment: Primary qHTS for delayed death inhibitors of the malarial parasite plastid, 48 hour incubation
Conditions: P. falciparum luciferase growth in erythrocytes; series mostly up to 28.7 µM; activity change, negative = inhibition: at the top concentration
Method in brief: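 Cell-based growth assay: transgenic P. falciparum expressing firefly luciferase, cultured in red cells within RPMI 1640 containing 0.5% w/v Albumax, 24 mM bicarbonate and gentamycin. A drop in luciferase activity indicates inhibition.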
On the % scale 0 is the no-effect control and ±100 the full control effect; potency means the concentration at half of the fitted maximal effect; tags describe the fitted curve by direction and shape.

Row | Compound | Potency | activity change, negative = inhibition
1 | CCN(CC)C(=O)Cn1nc(-c2ccccc2O)nc1SCC(=O)Nc1ccc(OC)cc1 | inconclusive [inhibitor, single point] | –
2 | Cc1ccc(C(=O)N/C(=C\c2cn(-c3ccccc3)nc2-c2ccccc2)C(=O)N2CCOCC2)cc1 | inconclusive [inhibitor, single point] | –
3 | C=CCn1c2ccccc2c2nnc(SC(CC)C(=O)Nc3nc(C)c(C(=O)OCC)s3)nc21 (stereo not given) | inconclusive [inhibitor, partial curve, poor fit] | –
4 | O=C(CNC(=O)c1[nH]cnc1C(=O)NC(c1ccccc1)c1ccccc1)OCc1ccccc1 | inconclusive [inhibitor, partial curve, poor fit] | –
5 | CC(=O)Nc1ccc(NC(=O)c2cc(-c3ccc(C)c(C)c3O)n[nH]2)cc1 | active: 11.7 µM | –
6 | CCOc1cc(N2CCOCC2)c(OCC)cc1NC(=O)c1ccc(S(=O)(=O)N(C)C)cc1 | inconclusive [inhibitor, partial curve, poor fit] | –
7 | Cc1cc(C)cc(-n2c3nc4ccccc4nc3c3c(=O)n(Cc4ccco4)cnc32)c1 | inconclusive [inhibitor, single point] | –
8 | O=C(CC1C(=O)NCCN1C(=O)Nc1ccc(C(F)(F)F)cc1)Nc1ccc(F)cc1 (stereo not given) | inconclusive [inhibitor, single point] | –
9 | CC(CO)Nc1nc(SCc2ccccc2)nc2sc3c(c12)CCC3 (stereo not given) | inconclusive [inhibitor, partial curve, poor fit] | –
10 | COc1ccc(OCc2cc(C(=O)N(C)Cc3nccn3C)no2)c2ccccc12 | – | inactive: -29.8%
11 | C=CCc1c(C)nc(SC)nc1Nc1ccc(C(=O)O)cc1 | – | inactive: 6.42%
12 | COc1cc(/C=N/NC(=O)CCn2nnc3ccccc32)ccc1O | – | inactive: -0.322%
13 | O=C(Cn1cnc2c(cnn2-c2ccccc2Cl)c1=O)N1CCc2ccccc21 | inconclusive [inhibitor, single point] | –
14 | O=C(O)C1CSC(c2cccnc2)N1 (stereo not given) | – | inactive: 23.7%
15 | O=C(CCSc1ccccc1)NCCN1CCOCC1 | – | inactive: 29.6%
16 | CCOC(=O)c1cccc(NC(=O)Cn2c(CC(=O)N3CCCC3)nc3ccccc32)c1 | – | inactive: -4.33%
17 | CCn1c2ccccc2c2nnc(SCc3ccccc3)nc21 | inconclusive [inhibitor, single point] | –
18 | O=C(CN1C(=O)C2C3CCC(C3)C2C1=O)NCc1ccco1 (stereo not given) | – | inactive: 31.3%
19 | COCCCNC(=O)c1c(N)n(-c2cccc(S(N)(=O)=O)c2)c2nc3ccccc3nc12 | inconclusive [inhibitor, single point] | –
20 | O=C1OCC2=C1C(c1ccc(F)cc1)CC(=O)N2c1ccc(F)cc1 (stereo not given) | inconclusive [inhibitor, full curve, poor fit] | –
21 | COC(=O)c1ccccc1-c1ccc(C(c2c(C)[nH][nH]c2=O)c2c(C)[nH][nH]c2=O)o1 | inconclusive [inhibitor, partial curve, poor fit] | –
22 | O=C(Cn1cc([N+](=O)[O-])cn1)N1CCCc2ccccc21 | – | inactive: 10.4%
23 | COc1ccc(NC(=S)N(CCc2c(C)[nH]c3ccc(C)cc23)Cc2cccnc2)cc1 | inconclusive [inhibitor, single point] | –
24 | O=C(NCCN1CCOCC1)c1ccccc1N1C(=O)[C@@H]2Cc3c([nH]c4ccccc34)C(c3ccc(F)cc3)N2C1=O (stereo not given in full) | inconclusive [inhibitor, partial curve, poor fit] | –

Row | Compound | Potency | activity change, negative = inhibition
25 | CC(C)CCNC(=O)c1cc(S(=O)(=O)N2CCCCC2)ccc1N1CCOCC1 | inconclusive [inhibitor, single point] | –
26 | COc1ccc(C(=O)NC2CCCCC2)cc1S(=O)(=O)N1CCOCC1 | – | inactive: -13.9%
27 | CCOC(=O)c1ccccc1NC(=O)CN1C(=O)CCS(=O)(=O)c2ccccc21 | – | inactive: -16.1%
28 | Clc1cncc(Cl)c1N/N=C/c1ccncc1 | inconclusive [inhibitor, partial curve, poor fit] | –
29 | O=C(COC(=O)c1c[nH]c2ccccc12)Nc1cccc(F)c1 | – | inactive: -8.24%
30 | COc1cc(-c2cc(C(=O)NCc3ccc(S(N)(=O)=O)cc3)c3ccccc3n2)cc(OC)c1OC | inconclusive [inhibitor, partial curve] | –
31 | CC(=O)Nc1ccc(SCC(=O)NC(=O)c2ccccc2Br)cc1 | – | inactive: -1.71%
32 | Cc1cccc(/C=N/NC(=O)c2cc(-c3cccnc3)nc3ccccc23)c1 | inconclusive [inhibitor, full curve, poor fit] | –
33 | CCOC(=O)CN(Cc1ccccc1)C(=O)OC(C)(C)C | – | inactive: 16.9%
34 | CN(Cc1nc(Cc2cccc(F)c2)no1)CC1CCOCC1 | – | inactive: 1.97%
35 | CC1=CC(C)(C)N(C(=O)C(C)N2C(=O)c3ccccc3C2=O)c2c(C)cc(C)cc21 (stereo not given) | active: 10.4 µM | –
36 | COc1ccc(C(C(=O)NC2CCCC2)N(C(=O)c2snc(C(N)=O)c2N)c2cc(C)ccc2OC)cc1OC (stereo not given) | inconclusive [inhibitor, partial curve] | –
37 | CC1SC(c2ccc(F)cc2)N(CCc2ccccc2)C1=O (stereo not given) | – | inactive: -25.8% [at 0.00184 µM]
38 | CCOc1ccc2c(c1)c(C(C)=O)c(C)n2Cc1ccco1 | – | inactive: -3.07%
39 | CCC(=O)N1C(=O)C2(Nc3ccccc3N2)c2ccccc21 | – | inactive: 17.5%
40 | COc1ccc(/C=C2\Sc3ccc(C(=O)NCCCN4CCCC4)cc3N(C)C2=O)cc1OC | inconclusive [inhibitor, partial curve, poor fit] | –
41 | Cc1cccc(CS(=O)(=O)c2cn(CC(=O)N3CCOCC3)c3ccccc23)c1 | – | inactive: -11.9%
42 | O=C(NC(Cc1ccccc1)C(=O)NCc1ccccn1)c1ccco1 (stereo not given) | – | inactive: -1.77%
43 | O=C(CSc1nnc(-c2cccs2)n1Cc1ccco1)Nc1ccc2c(c1)OCO2 | inconclusive [inhibitor, single point] | –
44 | Cc1ccc(S(=O)(=O)N2[C@@H](c3cccc(Cl)c3)C(C(=O)O)=CC[C@H]2c2ccc(Cl)c(Cl)c2)cc1 | inconclusive [inhibitor, single point] | –
45 | CCN(CC)S(=O)(=O)c1ccc(N2CCOCC2)c(NC(=O)c2ccc3ccccc3c2)c1 | inconclusive [inhibitor, single point] | –
46 | CCOc1ccc(-c2cc(C)[n+](CCc3ccc(OC)c(OC)c3)c(-c3ccc(OCC)cc3)c2)cc1 | inconclusive [inhibitor, partial curve, poor fit] | –
47 | CC(C)(C)c1cc[n+](-c2[nH]c(=O)sc2/C=N/NC([S-])=Nc2ccccc2)cc1 | inconclusive [inhibitor, single point] | –
48 | CC(C)(C)c1ccc(-c2cn(-c3ccc(Br)cc3)c3[n+]2CCCS3)cc1 | active: 2.62 µM | –

Row | Compound | Potency | activity change, negative = inhibition
49 | CC1COc2ccccc2N1S(=O)(=O)c1cc(Cl)ccc1Cl (stereo not given) | inconclusive [inhibitor, partial curve, poor fit] | –
50 | CC(=O)Nc1ccc(S(=O)(=O)N2CCN=C2SCc2cccnc2)cc1 | inconclusive [inhibitor, partial curve] | –
51 | COc1ccc(-c2ccc(-c3nnn(CC(=O)N4CCOCC4)n3)cc2)cc1 | – | inactive: 110%
52 | CCn1c(C)cc(=S)c2ccccc21 | inconclusive [inhibitor, single point] | –
53 | COc1ccc(-c2cn3cccnc3n2)cc1NC(=O)c1cccs1 | – | inactive: 2.8%
54 | COc1ccc(C2(c3ccc(OC)cc3)NC(=O)N(CC(=O)N(C)c3ccccc3)C2=O)cc1 | – | inactive: 32%
55 | COc1ccc(S(=O)(=O)N(Cc2ccccc2)Cc2nc(-c3ccccc3)no2)cc1 | active: 13.1 µM | –
56 | O=C(c1ccc2c3c(cccc13)CC2)C1CCCN(C(=O)c2cc[n+]([O-])cc2)C1 (stereo not given) | – | inactive: -6.45%
57 | Cc1c(C)c2ccc(OCC(=O)NC3CCN(Cc4ccccc4)CC3)cc2oc1=O | inconclusive [inhibitor, single point] | –
58 | CCNC(=S)N/N=C/c1ccc(OCCOc2ccccc2C)cc1 | – | inactive: 0.592%
59 | CCc1nnc(NC(=O)CSc2nnc(CNc3ccc(F)cc3)n2C2CCCCC2)s1 | inconclusive [inhibitor, single point] | –
60 | Cc1cc(=O)c2c(O)c3c(O)cc(=O)c4c3c3c(cc(O)c1c23)C(C)(C)C=4O | active: 2.69 µM | –
61 | Cc1sc(N/N=C/c2cccnc2)nc1-c1ccccc1 | active: 9.28 µM | –
62 | O=C(CN1CCN(S(=O)(=O)c2ccccc2Cl)CC1)NCC1(N2CCOCC2)CCCCC1 | active: 11.7 µM | –
63 | COc1ccc(S(=O)(=O)CC(=O)c2cc3cccc(C)c3oc2=O)cc1 | inconclusive [inhibitor, partial curve, poor fit] | –
64 | NC(=O)[C@@H]1CCCN1Cc1c(C(=O)N2CCc3ccccc3C2)nc2ccc(Cl)cn12 | – | inactive: 35.4%
65 | CC1C(OC(=O)CCC(=O)NC(C)(C)CO)O[C@H]2OC3(C)CC[C@H]4[C@H](C)CCC1C24OO3 (stereo not given in full) | inconclusive [inhibitor, full curve, poor fit] | –
66 | Cc1cccc(Sc2ccc([N+](=O)[O-])cn2)c1 | – | inactive: -0.336%
67 | CCN(CC)CCC#CC1(O)c2ccccc2-c2ccccc21 | – | inactive: -10.4%
68 | O=C(CSc1nnc(-c2ccc(F)cc2)o1)Nc1ccc(S(=O)(=O)N2CCCC2)cc1 | inconclusive [inhibitor, partial curve] | –
69 | CC1C(=O)N2CCCc3cc(NC(=O)C(=O)NCCc4c[nH]c5ccccc45)cc1c32 (stereo not given) | active: 1.47 µM | –
70 | O=C(NCC(=O)N(c1ccc2c(c1)OCCO2)C(C(=O)NC1CCCC1)c1ccco1)c1ccco1 (stereo not given) | inconclusive [inhibitor, single point] | –
